According to the supplement of paper PMC3334620:
In all, about 33,000 sequences were measured (“E-score (-0.5 to 0.5)”: median about -0.012, highest 2% from about 0.29 on). This is one part of the list.

What follows are sequences tested against T1, Ybr033w (UniProt P38073) (assay: PBM E-score (8-mer binding enrichment) (E-score (-0.5 to 0.5)); higher = stronger / more preferred TF binding; most listed sequences are background and not binding sites). Settings: protein concentration: 200 nM; construct: GST-full length.
T1 sequence: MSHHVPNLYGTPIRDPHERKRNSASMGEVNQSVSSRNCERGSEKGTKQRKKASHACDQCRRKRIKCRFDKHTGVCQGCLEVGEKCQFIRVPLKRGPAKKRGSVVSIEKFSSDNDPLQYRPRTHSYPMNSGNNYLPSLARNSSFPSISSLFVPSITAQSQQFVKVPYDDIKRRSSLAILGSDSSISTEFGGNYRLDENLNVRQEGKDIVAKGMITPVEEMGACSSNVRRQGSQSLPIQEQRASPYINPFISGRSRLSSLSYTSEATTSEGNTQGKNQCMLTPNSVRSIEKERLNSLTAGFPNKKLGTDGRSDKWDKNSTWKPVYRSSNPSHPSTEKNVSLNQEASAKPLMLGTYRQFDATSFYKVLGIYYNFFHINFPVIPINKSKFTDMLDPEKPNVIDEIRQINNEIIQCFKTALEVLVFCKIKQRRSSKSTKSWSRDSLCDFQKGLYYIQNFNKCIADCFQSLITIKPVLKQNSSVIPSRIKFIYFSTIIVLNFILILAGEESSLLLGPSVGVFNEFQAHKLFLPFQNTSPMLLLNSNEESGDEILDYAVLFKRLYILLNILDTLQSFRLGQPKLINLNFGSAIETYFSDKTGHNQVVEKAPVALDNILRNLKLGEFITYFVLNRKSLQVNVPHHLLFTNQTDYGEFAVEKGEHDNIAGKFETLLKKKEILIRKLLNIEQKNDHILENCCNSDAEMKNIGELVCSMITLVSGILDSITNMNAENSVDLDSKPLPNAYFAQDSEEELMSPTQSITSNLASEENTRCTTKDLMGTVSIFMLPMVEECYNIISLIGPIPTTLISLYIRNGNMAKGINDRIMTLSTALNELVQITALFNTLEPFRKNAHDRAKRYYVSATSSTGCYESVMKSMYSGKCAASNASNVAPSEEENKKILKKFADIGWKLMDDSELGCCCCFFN
Method in brief: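 For each ungapped eight-base word taken together with its reverse complement, the Universal PBM Analysis Suite assigned an E-score. Binding data came from GST-tagged yeast transcription factors, applied at about 100-200 nM, on universal all-10-mer Agilent arrays made double-stranded by primer extension. Fluorescent anti-GST marked bound protein, and scans were normalised with masliner.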
For CCGCAGCG, the “PBM E-score” value was -0.0846.
With ATAAAACG the “PBM E-score” value was 0.149.
With ACTTTGGC the “PBM E-score” value was -0.00974.
For ACTATCGA, the “PBM E-score” value was 0.0636.
For GGCACAAC, the “PBM E-score” value was -0.0942.
For CAAAGGTA, the “PBM E-score” value was -0.0471.
TGTTCCAA was tested, and the “PBM E-score” value was 0.267.
For ACTACTGC, the “PBM E-score” value was -0.0476.
CCTCACAC was tested, and the “PBM E-score” value was -0.126.
For GCATGAGA, the “PBM E-score” value was -0.0587.
CCAACTCA was tested, and the “PBM E-score” value was 0.194.
With ACATTGAC the “PBM E-score” value was 0.0386.
GTTCCTAA was tested, and the “PBM E-score” value was 0.125.
In the case of CGAGCTCC, the “PBM E-score” value is reported as -0.0992.
In the case of ACATGTTG, the “PBM E-score” value is reported as 0.244.
GCGAGGGA was tested, and the “PBM E-score” value was -0.223.
In the case of ACATTTCC, the “PBM E-score” value is reported as 0.199.
For CCAAATCC, the “PBM E-score” value was -0.0471.
For GATTCAGC, the “PBM E-score” value was -0.0285.
GCCTAGAA was tested, and the “PBM E-score” value was 0.0921.
With CAATAATG the “PBM E-score” value was 0.137.
GAAGACAA was tested, and the “PBM E-score” value was -0.0348.
In the case of TGAAGAAA, the “PBM E-score” value is reported as 0.134.
TCCTATAA was tested, and the “PBM E-score” value was 0.16.
CCACATCC was tested, and the “PBM E-score” value was -0.0275.
In the case of CAGACTGG, the “PBM E-score” value is reported as -0.0641.
In the case of CTATCCGA, the “PBM E-score” value is reported as 0.0774.
CAAAAATA was tested, and the “PBM E-score” value was 0.316.
With GGTTGTAC the “PBM E-score” value was -0.0389.
GTCGAAAC was tested, and the “PBM E-score” value was 0.0562.
With ATGAACGC the “PBM E-score” value was 0.141.
In the case of GCCACGCC, the “PBM E-score” value is reported as -0.269.
For ATAGCGTC, the “PBM E-score” value was -0.0496.
CTACAGGC was tested, and the “PBM E-score” value was -0.208.
In the case of CACTTCGA, the “PBM E-score” value is reported as -0.00432.
With TATGGACA the “PBM E-score” value was 0.0972.
With AGAACGGC the “PBM E-score” value was -0.0173.
For CCATGAAC, the “PBM E-score” value was 0.0633.
With ACGTTCGC the “PBM E-score” value was -0.209.
In the case of ACTGGCTC, the “PBM E-score” value is reported as -0.146.
In the case of AATCAACG, the “PBM E-score” value is reported as 0.157.
For CAGGTGCG, the “PBM E-score” value was 0.119.
For AGGTCCCC, the “PBM E-score” value was -0.284.
In the case of AGTCGTGC, the “PBM E-score” value is reported as -0.189.
For ATGTTAGC, the “PBM E-score” value was 0.162.
For AGTTGCAC, the “PBM E-score” value was -0.0723.
TAGTTAGA was tested, and the “PBM E-score” value was 0.142.
ACTCAATC was tested, and the “PBM E-score” value was 0.108.
In the case of GCCCATCC, the “PBM E-score” value is reported as -0.319.
For AATCGGCT, the “PBM E-score” value was 0.0915.
With CTTATTAA the “PBM E-score” value was 0.17.
CAAAGTTC was tested, and the “PBM E-score” value was 0.029.
In the case of AGTATTCG, the “PBM E-score” value is reported as -0.0384.
In the case of CAGGGCAG, the “PBM E-score” value is reported as -0.204.
CATTGTGC was tested, and the “PBM E-score” value was 0.0224.
With CGGCGGCC the “PBM E-score” value was -0.284.
With TACTAACA the “PBM E-score” value was 0.249.
For CAGGAGAA, the “PBM E-score” value was 0.241.
In the case of AATCCGTG, the “PBM E-score” value is reported as -0.071.
In the case of CGTGCGGA, the “PBM E-score” value is reported as -0.147.
In the case of CTAGGTTC, the “PBM E-score” value is reported as -0.127.
With CACAGATG the “PBM E-score” value was 0.1.
For GGTACACA, the “PBM E-score” value was -0.065.
With CCTTATCA the “PBM E-score” value was 0.0859.
In the case of GAACCGGC, the “PBM E-score” value is reported as -0.233.
In the case of CCTGTGAG, the “PBM E-score” value is reported as -0.0427.
In the case of ACACCGCG, the “PBM E-score” value is reported as -0.151.
In the case of ACATTCTC, the “PBM E-score” value is reported as 0.0969.
With ACCCAGAC the “PBM E-score” value was -0.103.
GACGAGGC was tested, and the “PBM E-score” value was -0.197.
In the case of TCTTCCAA, the “PBM E-score” value is reported as 0.169.
For TAGCCACA, the “PBM E-score” value was 0.0256.
In the case of AACACCTT, the “PBM E-score” value is reported as -0.0028.
AGTAGACT was tested, and the “PBM E-score” value was -0.0063.
With GACGTTCC the “PBM E-score” value was 0.0346.
With ATAGGTTA the “PBM E-score” value was 0.124.
With GAATACTA the “PBM E-score” value was 0.204.
In the case of CGGTCCTA, the “PBM E-score” value is reported as -0.295.
With TGGGGAAA the “PBM E-score” value was 0.0688.
For ACATTGCT, the “PBM E-score” value was 0.122.
In the case of CTTGTTGA, the “PBM E-score” value is reported as 0.193.
With AATTCTAA the “PBM E-score” value was 0.21.
AAACATCG was tested, and the “PBM E-score” value was -0.0863.
For CAGCATAA, the “PBM E-score” value was 0.152.
For CATAAAAA, the “PBM E-score” value was 0.258.
For CCTAAATC, the “PBM E-score” value was 0.0625.
For GGATTCAA, the “PBM E-score” value was 0.0566.
For CAGACGCC, the “PBM E-score” value was -0.195.
With GCGTTCCA the “PBM E-score” value was -0.142.
In the case of ATTTGCAG, the “PBM E-score” value is reported as 0.253.
For CCGCCCAA, the “PBM E-score” value was -0.228.
AGGCGAAG was tested, and the “PBM E-score” value was -0.0699.
CCTTGGCC was tested, and the “PBM E-score” value was -0.318.
For CAGAGGAG, the “PBM E-score” value was -0.14.
